# Over roughly 33,000 sequences, “E-score (-0.5 to 0.5)” has its median near -0.012; the highest 2% begin near 0.27. The list shows a part of the results.
# Target: T1, Vhr1 (UniProt P40522)
# T1 sequence: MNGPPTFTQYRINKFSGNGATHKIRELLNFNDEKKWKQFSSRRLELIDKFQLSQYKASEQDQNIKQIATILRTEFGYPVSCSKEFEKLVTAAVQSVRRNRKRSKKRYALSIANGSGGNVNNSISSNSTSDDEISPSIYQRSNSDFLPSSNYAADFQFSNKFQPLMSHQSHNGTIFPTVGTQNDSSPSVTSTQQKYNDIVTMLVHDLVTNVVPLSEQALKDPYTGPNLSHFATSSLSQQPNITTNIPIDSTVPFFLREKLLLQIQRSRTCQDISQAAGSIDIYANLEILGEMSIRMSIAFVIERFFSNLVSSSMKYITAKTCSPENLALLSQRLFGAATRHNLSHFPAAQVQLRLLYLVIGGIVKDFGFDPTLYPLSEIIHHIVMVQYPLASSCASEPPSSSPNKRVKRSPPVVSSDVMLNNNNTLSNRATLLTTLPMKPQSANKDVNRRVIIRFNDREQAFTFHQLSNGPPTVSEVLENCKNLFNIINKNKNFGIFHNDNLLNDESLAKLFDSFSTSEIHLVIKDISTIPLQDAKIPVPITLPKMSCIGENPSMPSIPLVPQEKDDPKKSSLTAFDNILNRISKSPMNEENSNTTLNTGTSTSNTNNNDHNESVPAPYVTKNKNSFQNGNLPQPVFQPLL
# Experiment: PBM E-score (8-mer binding enrichment) (E-score (-0.5 to 0.5)); higher = stronger / more preferred TF binding; most listed sequences are background and not binding sites
# Details: protein concentration: 200 nM; construct: GST-full length
# How it was run: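 For each ungapped eight-base word taken together with its reverse complement, the Universal PBM Analysis Suite assigned an E-score. Binding data came from GST-tagged yeast transcription factors, applied at about 100-200 nM, on universal all-10-mer Agilent arrays made double-stranded by primer extension. Fluorescent anti-GST marked bound protein, and scans were normalised with masliner.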
row,Sequence,PBM E-score
1,CCAGCACC,-0.15
2,ACTTAAAG,-0.293
3,AATGTTAT,-0.0251
4,ACCACCCC,0.112
5,CAGGGCCC,0.0132
6,CGTATTTA,0.0935
7,AGGCTACA,0.0844
8,ACTCTCAA,-0.173
9,AAGGTTAG,-0.205
10,CGATCAGC,-0.0243
11,GGCCAGTA,0.0481
12,AGATCCCG,0.297
13,CTACAATC,0.165
14,CCGACAGG,0.125
15,CAATACAG,0.109
16,ATCGCGTG,0.199
17,CTTTGGAA,-0.193
18,CGGATATA,0.18
19,CGCTGCTC,-0.142
20,CCTTAATC,-0.0483
21,AAATTCGC,-0.0808
22,TAAACAAA,-0.0338
23,CGGCTTGA,-0.0374
24,CAACGCCC,-0.158
25,AGTGTAGG,0.0837

row,Sequence,PBM E-score
1,ACTCAAGT,-0.0907
2,GGGCTACA,-0.161
3,TGCGGACA,0.0503
4,CACAGAGC,0.0408
5,AGATTTTG,-0.0437
6,GACATAAC,0.00863
7,CACCCGCA,-0.0465
8,AACAACAT,0.0565
9,GCGCTTAC,-0.329
10,GGACCTCA,-0.045
11,GCTTCAAA,-0.272
12,ATGAGGGC,-0.109
13,AGAACATC,-0.0202
14,AATGTGCG,0.18
15,ACAAAGGC,-0.14
16,AACGTGCC,-0.111
17,AGCTTCTG,-0.143
18,GGCACTGA,-0.0319
19,CTAACTTC,-0.253
20,CACGTGCA,-0.0875
21,CTTAGCAA,-0.0949
22,ACTGATTC,0.283
23,GAAATTCA,-0.198
24,AACCTATG,0.0205
25,AGCTTAAA,-0.0429

row,Sequence,PBM E-score
1,CGGTAAGC,-0.0847
2,CCGCAAGC,-0.0225
3,GTCGCGAC,0.379
4,CGAAAAGC,-0.0652
5,CCATTCGC,0.109
6,TGTCGTAA,-0.118
7,CCCGTGTC,0.0519
8,CAGAGGAA,0.117
9,ATTTAGTC,0.246
10,GCCAACTA,0.09
11,ACGGTGGG,0.121
12,ATCGTAAC,0.0764
13,CGGTACCG,0.0666
14,GGCTTTTA,-0.219
15,GCTGGTCC,-0.0736
16,AATATGTC,-0.0552
17,CGCGAGGA,0.0661
18,ACTTGTAA,-0.247
19,AAATAAGC,-0.363
20,CACGGTCG,-0.0864
21,TCTAGGCA,-0.208
22,CTGTCTAA,-0.0566
23,TCCAAGCA,-0.0112
24,GATTCCGC,0.216
25,CGCCGACG,-0.0192

row,Sequence,PBM E-score
1,ACACCCCC,-0.0905
2,GTGGGAAC,-0.0677
3,GGCGCCAC,0.0321
4,CAGCTTCC,-0.179
5,CATCGATA,0.213
6,AGGGATCG,-0.0799
7,CACCTCAG,-0.0536
8,CAAGGCCA,-0.108
9,CGTGAGGC,-0.0326
10,GGCGGGAA,-0.0569
11,ACGACTAT,0.195
12,CTCATCCC,0.0565
13,ACCGCCCT,-0.0373
14,CAGATTGC,-0.0393
15,TGGATACA,0.193
16,AAAGTAAG,-0.289
17,CATCGGGC,-0.00993
18,ACGACTAA,0.194
19,GCCAGCAA,-0.0258
20,GGCGGACC,0.0976
21,CCCGTTGA,0.0338
22,CTAAACAC,-0.2
23,CACCTCAA,0.0626
24,ATGACATC,0.153
25,CCCTAGGG,-0.176

row,Sequence,PBM E-score
1,TTCAGGAA,-0.175
2,CTTGCCAA,-0.019
3,AAAGACCA,-0.235
4,GGAACCTA,-0.0803
5,ACTGAATG,0.0153
6,CGCCTACG,0.0944
7,TGACCAAA,-0.0823
8,ATTAGGCG,-0.12
9,AATAATCT,0.0897
10,ATGAACGA,-0.0507
11,ATTAAACA,-0.0208
12,AATATCTA,0.0107
13,GGTGACGA,0.113
14,CAGCTCCC,-0.139
15,GAACCTCC,-0.0862
16,AGTAAAGG,0.0581
17,AGAGGTGG,-0.222
18,CACGCGAG,0.0874
19,GAGCAGAC,-0.032
20,TGACAACA,0.115
21,ACTAGGCC,-0.211
22,CCGTAAGG,-0.31
23,GTTAGATA,-0.00426
24,CACATGCC,0.0666
25,ACTCGCAT,0.19

row,Sequence,PBM E-score
1,CTTGGGGA,0.0162
2,CTGACCTA,0.0533
3,GGAGGGCC,-0.136
4,ACCACACA,0.0973
5,ACAGCTGC,-0.0546
6,ATGATTGA,0.344
7,ATAACCTG,-0.184
8,AAATTGTT,-0.12
9,CCACGCAC,0.0547
10,ATATGGTC,0.0487
11,ATCTGCCA,-0.0347
12,CTCGCTTA,-0.0254
13,CCCCGCCG,0.144
14,GAGTTGTA,-0.0334
15,CATTAACA,0.147
16,CGACTGAG,0.047
17,AGTGGAAT,0.00102
18,ATAACTTA,-0.0151
19,ACCGCTGC,-0.0871
20,CATTGTAA,0.155
21,CATCATGA,0.276
22,ACGACTCC,0.366
23,AACCGCAG,0.0303
24,CCTAACGC,-0.0631
25,CATCAGTA,0.134

row,Sequence,PBM E-score
1,AGCTGAAT,-0.023
2,CGTTCCTC,-0.0157
3,AACCGAGG,-0.0651
4,CACTGTTA,0.00219
5,ACTCGACC,0.0604
6,ATAGATAA,0.00589
7,CACTGTAG,0.142
8,CAGCACTG,0.0756
9,GGCAAGGA,-0.242
10,CCGGTAAA,-0.127
11,AAGAGAGC,-0.365
12,GATTGACA,0.0916
13,AGGGTCTG,-0.108
14,AGTCTAAT,-0.153
15,CAGACCAG,-0.0356
16,CCTGTGCA,-0.0814
17,AGACATTC,-0.115
18,CCAAAGAA,-0.123
19,AGAGCGCC,-0.134
20,AGTACCGA,-0.00877
21,GCCACAAC,0.116
22,CCACAGGC,-0.0524

# Source: the supplement of paper PMC3334620
